Patent US11384076B2, “Synthesis, pharmacology and use of new and selective FMS-like tyrosine kinase 3 (FLT3) FLT3 inhibitors” (UNIVERSITÄT REGENSBURG, priority 2017, dated 2022)

Assays:
Experiment in all cases: Cell cycle / subG1 fraction in Ba/F3 mutants, flow cytometry
Format in all cases: cell-based, murine
Conditions in all cases: 5 nM, 48 h
[1] = tested on: Ba/F3 D835Y N676K
Protocol: (§1) Cells were stained with PI; cell cycle was analyzed by flow cytometry.
(§2) After incubation, cells were harvested on ice and fixed in 80% ethanol at −20° C. for at least 1 h. Next, the cells were incubated with RNase for 30 min at room temperature, thereafter stained with propidium iodide (PI), and measured immediately with a flow cytometer. PI intercalates into DNA. In the different phases of the cell cycle, cells incorporate various amounts of PI. This allows the quantification of the cell cycle phases. The subG1 population represents the fraction of apoptotic/necrotic cells, which contains only fragmented DNA (DNA content <2N).
(§3) As described in the introduction there are several mutations next to ITDs that lead to reduce efficiency or to resistance against FLT3i treatment. The murine pro B cell line Ba/F3 and different mutant forms were analyzed. The proliferation of Ba/F3 wild type (WT) cells is dependent of interleukin-3 (IL-3). These cells were cultivated with 10% WEHI.
(§4) The WT and the different mutants were stained with PI and cell cycle distribution was analyzed by flow cytometry.

[2] = tested on: Ba/F3 D835Y
Protocol: as §1, §2, §3, §4

[3] = tested on: Ba/F3 ITD D835Y
Protocol: as §1, §2, §3, §4

[4] = tested on: Ba/F3 ITD N676K
Protocol: as §1, §2, §3, §4

| Structure (SMILES) | subG1 fraction / cell cycle distribution [1] | subG1 fraction / cell cycle distribution [2] | subG1 fraction [3] | subG1 fraction [4] |
| --- | --- | --- | --- | --- |
| CC1(COc2ccc3c(c2)ncn3-c2ccc3cccc(N4CCC(N)CC4)c3n2)COC1 [Crenolanib, reference compound] | changes in cell cycle distribution |  |  |  |
| CC(C)(C)c1cc(NC(=O)Nc2ccc3oc(C(=O)c4cc5cc(O)ccc5[nH]4)cc3c2)no1 [Marbotinib, 1-(5-(tert-butyl)isoxazol-3-yl)-3-(2-(5-hydroxy-1H-indole-2-carbonyl)benzofuran-5-yl)urea] | strong increase | strong increase | slight increase | strong increase |
